43 compounds from ChEMBL document CHEMBL5308541, “MAIP: An Open-Source Tool to Enrich High-Throughput Screening Output and Identify Novel, Druglike Molecules with Antimalarial Activity” (ACS Med Chem Lett, 2023) can be followed below.

The campaign covered roughly 150,000 compounds. About 540 (0.36%) showed an effect of 50% or more. Some of the results follow.

As usually defined, the % Inhibition is the relative decrease from the control value, in per cent.

This assay relates to Plasmodium falciparum. The assay can be described thus: Primary screen in NF54 nanoGlo assay, in single point, at 2uM, 72h; a lower Z score goes with more inhibition. Format: functional, Erythrocyte. The note with it: timepoint 72 hour.
On to `Cc1c(N(C)Cc2cccc(O)c2)nn2c(C(F)(F)F)nnc2c1C`, for which the “% Inhibition” value is given as -7% and the Z score came out at 1.4.

For the compound `Cc1cccc(NC[C@H]2CCN(c3cncc(OC(C)C)n3)C2)n1`, the “% Inhibition” value is recorded as 4% and the Z score is on record as -0.81.

With `CCN1CCN(c2ccccc2CNCCC2CCN(C)CC2)CC1`, the “% Inhibition” value stood at 27% and the Z score is on record as -4.06.

Take `Fc1cc(-c2ccncc2)ccc1CNCc1cnc(N2CCOCC2)c(F)c1`: the “% Inhibition” value is on record as -1% and the Z score worked out at 0.21.

Regarding `CCc1c(C(=O)CN2CCOC[C@H]2C(N)=O)[nH]c(C)c1C(C)=O`, the “% Inhibition” value is -2% and the Z score is reported as 0.32.

As for `Fc1ccc(N2CC[C@H](CNc3ccc4nnc(-c5ccccc5)n4n3)C2)cc1`, the “% Inhibition” value was -10% and the Z score is listed as 1.72.

Take `NC(=O)C1CCN(CCCCNCc2cnc3ccnn3c2)CC1`: the “% Inhibition” value was found to be 1% and the Z score is -0.23.

In the case of `C[C@@H]1CNCCN1Cc1cccc(OCCN2CCCCC2)c1`, the “% Inhibition” value is -4% and the Z score is on record as 0.73.

As for `COc1ccc(C(=O)NCCc2scnc2C)cc1N1CCOCC1`, the “% Inhibition” value was -5% and the Z score is reported as 0.89.

Consider `O[C@H](COC1CCCCC1)Cn1cnc(-c2ccccc2)c1-c1cccnc1`, for which the “% Inhibition” value is reported as -9% and the Z score was 1.94.

As to `O=C(c1nnc(N2CCN(c3ccccc3F)CC2)c2ccccc12)N1CCN(CCN2CCOCC2)CC1`, the “% Inhibition” value was 15% and the Z score is recorded as -2.65.

As for `CC(C)C1OCCCC1Nc1ccnc(N2CCC(CN3CCOCC3)C2)n1` (stereo unspecified), the “% Inhibition” value was 3% and the Z score is reported as -0.46.

For the compound `CC(C)n1cc(NC2CCN(c3cccc(-c4ccn[nH]4)c3)CC2)nn1`, the “% Inhibition” value was -7% and the Z score amounted to 1.23.

Take `COc1cncc(N2CCN(CCCN3CCCCC3)CC2)c1`: the “% Inhibition” value is -13% and the Z score amounted to 2.19.

Turning to `Cc1cc(-c2nc3ccc(S(C)(=O)=O)cc3[nH]2)cc(C)c1O`, the “% Inhibition” value is -1% and the Z score came out at 0.3.

In the case of `O=C(N[C@H]1CCNC1)c1cccc(OC2CCN(Cc3ccncc3)CC2)c1`, the “% Inhibition” value is reported as -7% and the Z score was found to be 1.28.

As to `NC[C@H]1CCCCN1C(=O)c1ccccc1-n1cnnc1`, the “% Inhibition” value is -5% and the Z score came out at 1.14.

In the case of `Cc1nc2ccc(Oc3ccccc3)cc2c(O)c1CN(C)C1CCN(C)CC1`, the “% Inhibition” value worked out at 34% and the Z score is -6.83.

On to `COc1ccc([C@@H](NC(=O)Nc2ncc(C3CCOCC3)s2)C2CC2)cn1`, for which the “% Inhibition” value is reported as -2% and the Z score turned out to be 0.38.

With `OCCN1CCN(C2CCN(c3cc(C4CC(O)C4)ncn3)CC2)CC1` (stereo unspecified), the “% Inhibition” value is 5% and the Z score is -0.91.

As to `CCN(C)C(=O)CN1CCC[C@H](S(C)(=O)=O)C1`, the “% Inhibition” value is on record as -2% and the Z score came to 0.31.

With `Cn1ccnc1C(O)C1CCCN(c2ncnc3[nH]ccc23)C1` (stereo unspecified), the “% Inhibition” value was -5% and the Z score is reported as 1.03.

For the compound `CN(C(=O)[C@H]1CCCN(CC(F)(F)F)C1)c1cccc2ncccc12`, the “% Inhibition” value is on record as -5% and the Z score is 0.79.

`C[C@@H](C1CCN(Cc2cnc(-c3ccco3)nc2)CC1)N1CCN(C)CC1`: the “% Inhibition” value is listed as -1% and the Z score is given as 0.21.

Consider `CCCCn1ccnc1[C@H]1CCCN(C(=O)c2cc(C(F)(F)F)nn2C)C1`, for which the “% Inhibition” value is reported as -5% and the Z score was determined as 0.95.

Take `CC(C)c1ccc(-c2csc3ncnc(Nc4ccc(Cl)c(C(F)(F)F)c4)c23)cc1`: the “% Inhibition” value is -15% and the Z score is reported as 2.57.

With `CN(C)CCN1CCC(CNCc2ccc3ncccc3c2)CC1`, the “% Inhibition” value was 40% and the Z score is on record as -8.63.

For the compound `Cc1noc(-c2ccnc(NCCc3coc(-c4ccccc4)n3)c2)n1`, the “% Inhibition” value stood at 0% and the Z score is recorded as -0.05.

For the compound `Cc1noc(-c2ccc(N3CC4CCC(C3)N(CC3CC3)C4)nc2)n1` (stereo unspecified), the “% Inhibition” value was -13% and the Z score was 2.24.

As to `CC1CN(c2cccc3cnccc23)CCN1C(=O)[C@H]1CCCCN1` (stereo partly specified), the “% Inhibition” value is recorded as 10% and the Z score was -1.71.

Consider `Cc1ccc(-c2cc(C(=O)NCc3ccnc(O[C@H]4CCOC4)c3)[nH]n2)c(C)c1`, for which the “% Inhibition” value is given as -2% and the Z score is 0.34.

Regarding `Cc1c(NC(=O)c2cc(-c3ccncc3)[nH]n2)cccc1-c1nncn1C`, the “% Inhibition” value is listed as -3% and the Z score came out at 0.47.

Take `CCN(C(=O)CN(C)Cc1ccccc1F)C1COCC1O` (stereo unspecified): the “% Inhibition” value came to 14% and the Z score is listed as -3.06.

For `CC(C)CC1OCCCC1NCCC(=O)N1CCN(C)CC1` (stereo unspecified), the “% Inhibition” value is on record as 3% and the Z score was -0.69.

Regarding `Cn1ccc2c(-c3cccc4c(N)ccnc34)ccnc21`, the “% Inhibition” value is listed as 6% and the Z score is given as -1.24.

Regarding `Cc1ncnc(N2CCN(C(=O)c3cccc(-c4cncc(N)c4)c3)CC2)c1C`, the “% Inhibition” value is -3% and the Z score amounted to 0.65.

For the compound `CCN(CC)C(=O)[C@@H]1C[C@H](N)CN1C(=O)c1cnc2c(c1)nnn2C`, the “% Inhibition” value is given as -14% and the Z score turned out to be 2.15.

Consider `NC1CCN(Cc2cc(O)c3cc(Cl)ccc3n2)CC1O` (stereo unspecified), for which the “% Inhibition” value is -5% and the Z score was determined as 0.95.

Regarding `c1ccc(COc2cc(N3C[C@H]4COC[C@H]4C3)ncn2)cc1`, the “% Inhibition” value was -5% and the Z score came to 0.83.

For `CCN1CCCC[C@@H]1CNc1ncnc(C)c1C`, the “% Inhibition” value came out at 7% and the Z score is -1.21.

With `Cc1c(C(=O)N[C@H]2CCN(CC3CCCC3)C2)nnn1C1CCNCC1`, the “% Inhibition” value is recorded as -2% and the Z score is reported as 0.36.

As to `COc1ccnc(NCc2ccc(-n3cnc4ccccc43)cc2)n1`, the “% Inhibition” value came to 2% and the Z score is -0.34.

Take `Cc1c(Cl)cccc1Nc1c(-c2ccc3nccnc3c2)nc2c(C)cccn12`: the “% Inhibition” value was -5% and the Z score turned out to be 0.87.
